This is one part of the list.
Molecular target: T1, OsWOX13 (Oryza sativa, UniProt Q5QMM3 1-267)
T1 sequence: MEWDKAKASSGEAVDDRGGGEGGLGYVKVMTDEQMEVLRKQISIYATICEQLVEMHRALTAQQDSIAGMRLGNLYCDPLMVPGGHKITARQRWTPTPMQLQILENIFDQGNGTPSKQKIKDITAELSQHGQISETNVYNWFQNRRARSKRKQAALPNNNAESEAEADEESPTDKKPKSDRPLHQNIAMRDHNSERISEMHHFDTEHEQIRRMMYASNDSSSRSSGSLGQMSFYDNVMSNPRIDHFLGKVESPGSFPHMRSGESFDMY
Test: protein-binding microarray (RPBM); PBS, 2% BSA, 51.3 ng/ul salmon testes DNA, 50 uM zinc acetate, 200 nM TF, 25 C, 1 h; high values mean tight binding
Details: protein: recombinant; tags: N-terminal polyhistidine and DsRed monomer fusion (pET32a); label: CyDye5-dUTP incorporated in the synthesized complementary strand; 3' TTTTT single-stranded linker to array surface; dsDNA, one strand shown
Outline: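 The binding signal for each feature is its fluorescence intensity in arbitrary units. An Axon 4000B scanner was used to read a custom Agilent array that had been made double-stranded with Cy5-dUTP primer extension, blocked with 2% BSA, incubated at 25 °C for 1 h with 200 nM protein in PBS, 2% BSA, salmon testes DNA and 50 µM zinc acetate, and washed. The protein was an N-terminal polyhistidine–DsRed transcription factor fusion from E. coli BL21-CodonPlus, purified on Ni–NTA.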

Sequence	binding signal
CTAGTTGATGGGTGGTTGACGTTTCATCGAGCTATCCTAGCGGAGTCACCTAGTGCAG	7250 fluorescence intensity (a.u.)
CAAATAGATAGATTAATATGCAGTATAACACTCTACAAATCGGAGTCACCTAGTGCAG	32400 fluorescence intensity (a.u.)
GGTGGTGGTGGTGGTGGTGGTGGTGTAGGAGGAGGAGGAGCGGAGTCACCTAGTGCAG	22300 fluorescence intensity (a.u.)
GCGCCACATAATTGTAGTCATCCTGCCGGTAACCATTTCGCGGAGTCACCTAGTGCAG	5940 fluorescence intensity (a.u.)
ACTATTCATGTTCAACGTTTGACTGTCCGTCTTATTTGAACGGAGTCACCTAGTGCAG	4450 fluorescence intensity (a.u.)
AAGCATGCACCTGATTGATTCACTAAACGTATCGTCGACACGGAGTCACCTAGTGCAG	18800 fluorescence intensity (a.u.)
TGGCTAATTTGACTAAGTCTTCTTCCAACGTGGCATTGGCCGGAGTCACCTAGTGCAG	19800 fluorescence intensity (a.u.)
GAGCAAATAATTGCACTCCACTGGAGTACCCGTAGTACGACGGAGTCACCTAGTGCAG	3620 fluorescence intensity (a.u.)
GTTAGATTGTAACAATAAACTGTAACTCTCCTGAGCAGAGCGGAGTCACCTAGTGCAG	22700 fluorescence intensity (a.u.)
TTACGAAAACAGTTAAATTGAATGGAACCAAGCCAGATCACGGAGTCACCTAGTGCAG	6460 fluorescence intensity (a.u.)
GCCTAATTAATCCATCATTAGCAAATGTTTACTGTAGCACCGGAGTCACCTAGTGCAG	48200 fluorescence intensity (a.u.)
AGCAGATGAGAACAGTGATTTGTATCTTTCTGAGCACTATCGGAGTCACCTAGTGCAG	11800 fluorescence intensity (a.u.)
TTTAATCACTAATTAATTGTTGATTAGCGGCAAGTGTGACCGGAGTCACCTAGTGCAG	63800 fluorescence intensity (a.u.)
CTAATTAATCATCAGTTGATAATTTCCCTAACTGTGGCGTCGGAGTCACCTAGTGCAG	49600 fluorescence intensity (a.u.)
AAATAATTTACTAAAATTTTGGTAATATTATCAATTTACCCGGAGTCACCTAGTGCAG	21700 fluorescence intensity (a.u.)
ATCCAAATTAATTTCATGTGATGTGCAGCAGTAGGAGGTACGGAGTCACCTAGTGCAG	43800 fluorescence intensity (a.u.)
TATAAATTTGCCTCAATAATGGTGAAGTGAGCGTTGCTCACGGAGTCACCTAGTGCAG	4200 fluorescence intensity (a.u.)
CCTTGATGACATGCTCTGACAGCTCATGAGTTCTACTGGACGGAGTCACCTAGTGCAG	24200 fluorescence intensity (a.u.)
TATTATATATCACACAAATTAAATAGGAAAGTAATTTGATCGGAGTCACCTAGTGCAG	4010 fluorescence intensity (a.u.)
TCAGATTAACAACACAAACCGACAGTCAAAACTGAATTAGCGGAGTCACCTAGTGCAG	7060 fluorescence intensity (a.u.)
AAGCATAAATTGGTCCGCATCTTGCTTGTGTAAGCTGTCCCGGAGTCACCTAGTGCAG	8510 fluorescence intensity (a.u.)

Sequence	binding signal
GGCGGTGTTAATTGCGATCAGATTATAAAACGAGACCTAGCGGAGTCACCTAGTGCAG	24900 fluorescence intensity (a.u.)
AATATATCCAATAATTGATTTAAGGGAACTAATCTGAACACGGAGTCACCTAGTGCAG	28400 fluorescence intensity (a.u.)
CATAATTAATAGCACTTCCGATCTGACCACTTGATATATTCGGAGTCACCTAGTGCAG	12700 fluorescence intensity (a.u.)
ACATTGGTGATTTTGGTAATTTTAGGCAGGAAACAACTGCCGGAGTCACCTAGTGCAG	9730 fluorescence intensity (a.u.)
TTAAAATGCTGAGTTATAATCAATTTGTGTTTGAAATGCACGGAGTCACCTAGTGCAG	4820 fluorescence intensity (a.u.)
GTACAAATATAATTATACAGCCTCCAAAATGTTGCTTTAACGGAGTCACCTAGTGCAG	6190 fluorescence intensity (a.u.)
CGTACTGATGGAAACGAGAAATAGCTAAGCTGAACCAGCTCGGAGTCACCTAGTGCAG	3580 fluorescence intensity (a.u.)
AGTTACTCGTCAAATCACCAATTTCACCAGCCGTCGGTCCCGGAGTCACCTAGTGCAG	3530 fluorescence intensity (a.u.)
AGGTAAATTTTGCTACATGACATCGTGACTTTGCGGTTTTCGGAGTCACCTAGTGCAG	8890 fluorescence intensity (a.u.)
TTTTAACGAAATTTTCATGGGGCAAATTTGGATCGCGACCCGGAGTCACCTAGTGCAG	4220 fluorescence intensity (a.u.)
TATATATATATATATATATATATAAAATAAGAAAATCTGACGGAGTCACCTAGTGCAG	39500 fluorescence intensity (a.u.)
AGGCCTGATTGAGACAACTATCATTCGTAATGAGCTTAACCGGAGTCACCTAGTGCAG	34300 fluorescence intensity (a.u.)
TAATAATCATTTTCTCAGTAAATTCACATACACAAAGATGCGGAGTCACCTAGTGCAG	3210 fluorescence intensity (a.u.)
GATTGATTATTGCCGCGAATATATTGTTGCACCTCGCTTTCGGAGTCACCTAGTGCAG	45700 fluorescence intensity (a.u.)
TCAAAAGCTTATTGATTAATTGTAAACCATAAAACTTCAGCGGAGTCACCTAGTGCAG	6990 fluorescence intensity (a.u.)
CGCAATGATTTCTTCTTCTTGTACCACACTGCTTCTGCTGCGGAGTCACCTAGTGCAG	20700 fluorescence intensity (a.u.)
TCATGATTTGACAATGTGTTACTACAATAAATATTTGCTACGGAGTCACCTAGTGCAG	28900 fluorescence intensity (a.u.)
TGAGCTGATTGATCGTCTGAAGGGTGTCTGATTGTCAAGTCGGAGTCACCTAGTGCAG	52800 fluorescence intensity (a.u.)
ATCTTTTGAATCAATCCTAATAACCAAATAATAACCTCCACGGAGTCACCTAGTGCAG	3180 fluorescence intensity (a.u.)
TTTAAATAACAGATAATTGACGTGATGAGTATGACTATATCGGAGTCACCTAGTGCAG	26800 fluorescence intensity (a.u.)
ATAAATTGAAATAGTTCAAAACCCTACTTTTCAAACTTGTCGGAGTCACCTAGTGCAG	41900 fluorescence intensity (a.u.)

Sequence	binding signal
ATTAATTAATTAACCTCTAACATTTAACTAATGCAGGTAACGGAGTCACCTAGTGCAG	56900 fluorescence intensity (a.u.)
TGGAGATTGGAGTTTGGAGTTTGGAGAGAGAGAAATGCAACGGAGTCACCTAGTGCAG	5290 fluorescence intensity (a.u.)
TCAGTGTAATTTGACTCCCTCAACGATTTTGGATGGCAGTCGGAGTCACCTAGTGCAG	5230 fluorescence intensity (a.u.)
CCTAAATTGAAAATATGAGTTAAACGGTTCATATTTTGAGCGGAGTCACCTAGTGCAG	10900 fluorescence intensity (a.u.)
GCCGAAATTGACATGTGACGCCCATAGTAAAGCCCACACGCGGAGTCACCTAGTGCAG	39700 fluorescence intensity (a.u.)
TCTTGTTGTTCAATCAGCTTGGACACTAAAATTCATGGTTCGGAGTCACCTAGTGCAG	6590 fluorescence intensity (a.u.)
GGTTGTGCATGCACACTAATTAATTTGTGACGATTAAGTGCGGAGTCACCTAGTGCAG	3770 fluorescence intensity (a.u.)
CAGAATGATTTGTGCTACCGGCCTCGGGGTGAGATGGAAACGGAGTCACCTAGTGCAG	14000 fluorescence intensity (a.u.)
TCTAATTTATTAGAGCGCCACATGACGGCTTGAGAGCGTTCGGAGTCACCTAGTGCAG	19200 fluorescence intensity (a.u.)
CAAAATTTTAAATTTGATTTACGGTTGACAATAATAATAACGGAGTCACCTAGTGCAG	25200 fluorescence intensity (a.u.)
GTCCTTCCAATCATACTACTTTTGTGTCAACCCTTTTACACGGAGTCACCTAGTGCAG	9270 fluorescence intensity (a.u.)
CATGTACCATTGATAACTGGTTGACAGGATGCAAGCTGAGCGGAGTCACCTAGTGCAG	3920 fluorescence intensity (a.u.)
TAGAAATTAGTGAAAGGAATGGAGGTAGTTTGACTTGTCTCGGAGTCACCTAGTGCAG	3460 fluorescence intensity (a.u.)
CATATGATTAATTAAAATTTTATCATTTAGAACTTGAAAACGGAGTCACCTAGTGCAG	34800 fluorescence intensity (a.u.)
GAGAATTATCTAAAATAATTCGTGCAAGATAAAATCATGGCGGAGTCACCTAGTGCAG	3210 fluorescence intensity (a.u.)
ACAATGATTGATTAATGTTTGATAGTAACAGCCATGAGAGCGGAGTCACCTAGTGCAG	58800 fluorescence intensity (a.u.)
GATTAAACAATTTGACATGCTAATGTGATCTCTGGTGTGACGGAGTCACCTAGTGCAG	6330 fluorescence intensity (a.u.)
TTAATTAGGCTAAATAGATTCATCTCGTGAATTAGTCCAACGGAGTCACCTAGTGCAG	18900 fluorescence intensity (a.u.)
ATTCAAATGAATAACAAATTAACAATATTCATATGTATAACGGAGTCACCTAGTGCAG	4670 fluorescence intensity (a.u.)
GATGATTAGTGCCTCAGTTATTTGAATGTCCATTATTCTGCGGAGTCACCTAGTGCAG	43900 fluorescence intensity (a.u.)
TTATAATGGTTTTAATAATTGAGAGAATCAAGATATCCGGCGGAGTCACCTAGTGCAG	14900 fluorescence intensity (a.u.)

Sequence	binding signal
TCATTTCTCCAATCATAGGAGCTGGCGCATTGATCGATCACGGAGTCACCTAGTGCAG	6160 fluorescence intensity (a.u.)
TTCAGACGTGATTTTGAATCTTAATAGCATGCATATGAGCCGGAGTCACCTAGTGCAG	9270 fluorescence intensity (a.u.)
GCAGCTGACAGGCTTTCCCTACACCCATATCAAGAGAGCCCGGAGTCACCTAGTGCAG	4550 fluorescence intensity (a.u.)
AAATACTTAATTAATCACGTGTTAATGGATCGCTCCGTTTCGGAGTCACCTAGTGCAG	21600 fluorescence intensity (a.u.)
AGAAGATTAATTATATACATGAACATTAATTCTGAACTACCGGAGTCACCTAGTGCAG	36300 fluorescence intensity (a.u.)
CGTTTAAATTACATCATAAGATGGTTTTGGACGGTGGTTTCGGAGTCACCTAGTGCAG	6260 fluorescence intensity (a.u.)
ATAAATTTAGTTAAGGACGAGTACTGTGAGTTAATCGTGTCGGAGTCACCTAGTGCAG	8040 fluorescence intensity (a.u.)
TGCTGTTCTTAATTGCTGCATGCCATGTCTCACTTGGAAACGGAGTCACCTAGTGCAG	3590 fluorescence intensity (a.u.)
ATAAAATTAGAACATTATCATCACGGTCATGTTTTCCATCCGGAGTCACCTAGTGCAG	11700 fluorescence intensity (a.u.)
ATAGGCTGTCTTCAATTAGAGCATTTAAACATTTAATGCTCGGAGTCACCTAGTGCAG	8190 fluorescence intensity (a.u.)
GTATGATTAATTGAGTTTTAATTATTATAAAATTTTAAAACGGAGTCACCTAGTGCAG	22900 fluorescence intensity (a.u.)
GACGATTACATCAAGTTGATAGAACCATACTAAGAAAATTCGGAGTCACCTAGTGCAG	4070 fluorescence intensity (a.u.)
TTAGATAAATTTTACAATATATAACGGCTTTATTGAATGCCGGAGTCACCTAGTGCAG	4840 fluorescence intensity (a.u.)
GTGAATAAATTATGAATGACAAGATTAAGAGTAAATTATGCGGAGTCACCTAGTGCAG	36400 fluorescence intensity (a.u.)
ACCCCGAGCTGATTATCTCTGAACGTACGATCAAGCCGTCCGGAGTCACCTAGTGCAG	6180 fluorescence intensity (a.u.)
GAAAATTTGACTGTTCAAAATTGTGTGAAAGTTATATTGTCGGAGTCACCTAGTGCAG	11100 fluorescence intensity (a.u.)
AATTCTCCATTTAACTTTTCCGTTTTCCAATTTCACATCACGGAGTCACCTAGTGCAG	3390 fluorescence intensity (a.u.)
ATAATAAATATAGTTAATTAAAGGAACAGAGTGAAGTCAGCGGAGTCACCTAGTGCAG	11600 fluorescence intensity (a.u.)
TAGAGATTTAATTACAATGAATACAACGGTGTGATCGGATCGGAGTCACCTAGTGCAG	11700 fluorescence intensity (a.u.)
TGGAGATTAGATCTGTACAGCCGGGTATGGTTGTTCAGGACGGAGTCACCTAGTGCAG	3810 fluorescence intensity (a.u.)
TACCAACAGCGCCCTACTCGTCGTCGCTCCCGGTCGCTGCCGGAGTCACCTAGTGCAG	47600 fluorescence intensity (a.u.)
